# Measured values reported in patent US20250304717A1, “CAMPTOTHECIN DERIVATIVE AND LIGAND-DRUG CONJUGATE” (HAINAN SIMCERE ZAIMING PHARMACEUTICAL CO., LTD., priority 2022, published 2025).
# B1: ADC-L1-19-P1-3 (conjugate)
# heavy: EVQLVQSGAEVKKPGASVKVSCKASGYTFTRNFMHWVRQAPGQGLEWMGWIYPGDGETEYAQKFQGRVTITADTSTSTAYMELSSLRSEDTAVYYCARGVYGGFAGGYFDFWGQGTLVTVSSASTKGPSVFPLAPSSKSTSGGTAALGCLVKDYFPEPVTVSWNSGALTSGVHTFPAVLQSSGLYSLSSVVTVPSSSLGTQTYICNVNHKPSNTKVDKRV[human IgG1 Fc omitted]
# light: DIQMTQSPSSLSASVGDRVTITCKASQNIYKNLAWYQQKPGKAPKLLIYDANTLQTGVPSRFSGSGSGSDFTLTISSLQPEDFATYFCQQYYSGWAFGQGTKVEIKRTVAAPSVFIFPPSDEQLKSGTASVVCLLNNFYPREAKVQWKVDNALQSGNSQESVTEQDSKDSTYSLSSTLTLSKADYEKHKVYACEVTHQGLSSPVTKSFNRGEC
# B2: ADC-L1-19-3 (conjugate)
# heavy: B1 heavy
# light: B1 light
# B3: ADC-L1-19-P1-6 (conjugate)
# heavy: EVQLVQSGAEVKKPGASVKVSCKASGYTFTDYYMAWVRQAPGQGLEWMGYIFPNSGGTDYSQKFKGRVTLTVDKSTSTVYMELSSLRSEDTAVYYCARELGADYGDYYAMDHWGQGTTVTVSS[human IgG1 constant region omitted]
# light: DIQMTQSPSSLSASVGDRVTITCRASENIDSYLAWYQQKPGKSPKLLVYSATLLADGVPSRFSGSGSGTDYTLTISSLQPEDFATYYCQHYYRTPPTFGQGTKLEIKRTVAAPSVFIFPPSDEQLKSGTASVVCLLNNFYPREAKVQWKVDNALQSGNSQESVTEQDSKDSTYSLSSTLTLSKADYEKHKVYACEVTHQGLSSPVTKSFNRGEC
# B4: ADC-L1-19-6 (conjugate)
# heavy: B3 heavy
# light: B3 light
# System: OVCAR3 cells
# Experiment: Anti-tumor cell proliferation activity of anti-CDH6-ADC, OVCAR3
# Type: cell-based, human
# Details: 5 days
# From the text: (§1) Cell and material: The human ovarian cancer cell line OVCAR3 (CDH6 high-expression cell strain) was purchased from ATCC, the human ovarian teratoma cell line PA-1 was purchased from ATCC, bovine serum, 1640 medium (Gibco #A10491-01), MEM medium (Gibco #11095-080), MEM NEAA (Gibco #11140-050), sodium pyruvate (Gibco #11360-070), penicillin-streptomycin, and 0.25% Trypsin-EDTA (Gibco #25200-056) were purchased from Gibco, bovine insulin was purchased from Solarbio, 96 well plates were purchased from Corning (U.S.), and Cell-Titer Glo reagent was purchased from Promega (U.S.).
# (§2) Cell culture: OVCAR3 cells were cultured with a 1640 medium containing 20% fetal bovine serum +2 μg/mL bovine insulin+1% penicillin-streptomycin at 37° C. with 5% CO2, and PA-1 cells were cultured with an MEM medium containing 10% fetal bovine serum+1% MEM NEAA+1% sodium pyruvate+1% penicillin-streptomycin at 37° C. with 5% CO2. Cells at logarithmic growth phase were available for the experiment.
# (§3) Cell proliferation activity test: The Cell-Titer Glo reagent was used to test ADC for inhibitory activity on proliferation of both OVCAR3 and PA-1 cell strains. OVCAR3 and PA-1 cells were digested and pipetted in cell culture flasks, and resuspended using the corresponding fresh medium. The cell density was adjusted. OVCAR3 cells (5000 per well) and PA-1 (800 per well) were seeded on 96-well plates and incubated at 37° C. with 5% CO2 for 24 h. After the ADC solution to be detected was added (the ADC was diluted with the medium for the corresponding cells described above, the ADC concentration was adjusted to 100 nM, then the medium was continuously and serially diluted 3-fold to give a total of 8 concentrations, and 10 μL of the prepared ADC solution was transferred to the 96-well plate so that the final concentration was 0-10 nM), the mixture was incubated at 37° C. with 5% CO2. OVCAR3 cells and PA-1 cells were cultured for 5 days. The Cell-Titer Glo reagent was added and the cell activity was measured.
# (§4) A negative control group and a positive control group were respectively used as Bottom and Top. The negative control group was not added with cells, only added with the culture medium in the same volume, and other operations were consistent with those of the experimental group. The positive control group was not added with the test drug, and other operations were consistent with those of the experimental group.
# (§5) Data analysis: % Inhibition was calculated, and compound IC50 was fitted.
# (§6) Signal referred to the signal value of the experimental group, Bottom referred to the average signal value of the negative control group, and Top referred to the average signal value of the positive control group.
row,Molecule,IC50 [nM]
1,B1,0.015
2,B2,0.015
3,B3,0.015
4,B4,0.022

# System: PA-1 cells
# Experiment: Anti-tumor cell proliferation activity of anti-CDH6-ADC, PA-1
# Type: cell-based, human
# Details: 5 days
# From the text: as §1, §2, §3, §4, §5, §6
row,Molecule,IC50 [nM]
1,B1,0.018
2,B2,0.0094
3,B3,0.017
4,B4,0.023

# System: CDH6 negative cells SKOV3
# Experiment: Bystander effect test of anti-CDH6-ADC
# Type: cell-based, human
# Details: supernatant from OVCAR3, SKOV3 negative cell
# Method: Cell culture: OVCAR3 cells were cultured with a 1640 medium containing 20% fetal bovine serum +2 μg/mL bovine insulin+1% penicillin-streptomycin, and SKOV3 cells were cultured with a McCoy's 5a medium containing 10% fetal bovine serum+1% penicillin-streptomycin. The two cell strains were both cultured at 37° C. with 5% CO2. Cells at logarithmic growth phase were available for the experiment.
# Bystander effect detection: The supernatant after incubation of the ADC with CDH6 positive cells OVCAR3 was transferred to CDH6 negative cells SKOV3 for further incubation, and the Cell-Titer Glo reagent was used for detecting the influence of the supernatant on the cell proliferation activity of SKOV3, so that the bystander effect of the ADC was reflected. OVCAR3 cells were digested and pipetted in cell culture flasks, and resuspended using the corresponding fresh medium. The cell density was adjusted. The cells were seeded on a 96-well plate at 20000 cells/180 μL/well and incubated at 37° C. with 5% CO2 overnight. The ADC concentration was diluted to 4500 nM with a complete medium and subjected to 3-fold gradient dilution to give a total of 8 concentration gradients, and then 20 μL of an ADC diluted solution was transferred to the 96-well plate, i.e., the initial concentration of the ADC was 450 nM. The 96-well plate was incubated at 37° C. with 5% CO2 for 5 days. 150 μL of the supernatant in the OVCAR3 cell culture plate was pipetted and transferred to the SKOV3 cell plate (700 cells/50 μL/well) seeded one day in advance, and incubated at 37° C. with 5% CO2 for 7 days. The Cell-Titer Glo reagent was added and the cell activity was measured.
# as §4
# % Inhibition was calculated and fitted to give compound IC50.
# as §6
row,Molecule,Maximum inhibition rate (%)
1,B1,105.4
2,B2,102.7
3,B3,104.9
4,B4,104

# Same assay, conditions: supernatant from OVCAR3 incubated with ADC 5 days, then 7 days on SKOV3; read-out: IC50 (negative cell)
row,Molecule,IC50 [nM]
1,B1,1.37
2,B2,1.39
3,B3,1.8
4,B4,2.21
